Data taken from EP0068408A1 (priority 1981, dated 1983).

Key:
Type in all cases: cell-based
Influenza A2 = assay: microbe, parasite or virus in culture; conditions: read-out: Minimum Inhibitory Concentration
Vesicular stomatitis = assay: microbe, parasite or virus in culture; conditions: read-out: Minimum Inhibitory Concentration
Respiratory virus = assay: Antiviral activity in cultured cells (inhibition of cytopathic effect); conditions: virus I = Respiratory virus; complete inhibition of cytopathic effect by 100TCID50; read-out: Minimum Inhibitory Concentration

SMILES | MIC (Influenza A2) [µg/mL] | MIC (Vesicular stomatitis) [µg/mL] | MIC (Respiratory virus) [µg/mL]
N=C(N)NS(=O)(=O)c1cc(C(=O)O)c(Cl)cc1Cl [Compound 21] | 300 (≈ 961 µM) | 300 (≈ 961 µM) | –
N=C(N)NNS(=O)(=O)c1cc(C(=O)O)c(Cl)cc1Cl [Compound 22] | 100 (≈ 306 µM) | 300 (≈ 917 µM) | –
CN(CCO)S(=O)(=O)c1cc(C(=O)O)ccc1Cl [Compound 6] | 300 (≈ 1020 µM) | 300 (≈ 1020 µM) | –
O=C(O)c1ccc(Cl)c(S(=O)(=O)N2CCCC2)c1 [Compound 12] | 300 (≈ 1040 µM) | 300 (≈ 1040 µM) | –
CONS(=O)(=O)c1cc(C(=O)O)ccc1Cl [Compound 4] | 300 (≈ 1130 µM) | 300 (≈ 1130 µM) | –
NS(=O)(=O)c1cc(C(=O)O)c(F)cc1Cl [Compound 16] | 300 (≈ 1180 µM) | 100 (≈ 394 µM) | –
CN1CCN(S(=O)(=O)c2cc(C(=O)O)ccc2Cl)CC1 [Compound 13] | 300 (≈ 941 µM) | 300 (≈ 941 µM) | –
NS(=O)(=O)c1cc(C(=O)O)c(Cl)cc1F [Compound 17] | 300 (≈ 1180 µM) | 300 (≈ 1180 µM) | –
O=C(O)c1ccc(Cl)c(S(=O)(=O)NNc2ccc(Cl)nn2)c1 [Compound 10] | 300 (≈ 826 µM) | 300 (≈ 826 µM) | –
NS(=O)(=O)c1cc(C(=O)O)cc(Cl)c1Cl [Compound 20] | 10 (≈ 37 µM) | 30 (≈ 111 µM) | –
Nc1cc(Cl)c(S(N)(=O)=O)cc1C(=O)O [Compound 14] | 300 (≈ 1200 µM) | 300 (≈ 1200 µM) | –
NS(=O)(=O)c1cc(Br)cc(C(=O)O)c1 [Compound 26] | 300 (≈ 1070 µM) | 300 (≈ 1070 µM) | –
NS(=O)(=O)c1ccc(Cl)cc1C(=O)O [Compound 27] | 30 (≈ 127 µM) | 300 (≈ 1270 µM) | –
NNS(=O)(=O)c1cc(C(=O)O)ccc1Cl [Compound 7] | 100 (≈ 399 µM) | 100 (≈ 399 µM) | –
O=C(O)c1ccc(Cl)c(S(=O)(=O)NCCO)c1 [Compound 5] | 100 (≈ 358 µM) | 300 (≈ 1070 µM) | –
NS(=O)(=O)c1cc(C(=O)O)cc([N+](=O)[O-])c1Cl [Compound 15] | 300 (≈ 1070 µM) | 300 (≈ 1070 µM) | –
NC(=O)NNS(=O)(=O)c1cc(C(=O)O)c(Cl)cc1Cl [Compound 23] | 300 (≈ 914 µM) | 300 (≈ 914 µM) | –
NS(=O)(=O)c1cc(Cl)cc(C(=O)O)c1 [Compound 25] | 300 (≈ 1270 µM) | 300 (≈ 1270 µM) | 100 (≈ 424 µM)
NC(=O)C(=O)NNS(=O)(=O)c1cc(C(=O)O)c(Cl)cc1Cl [Compound 24] | 300 (≈ 842 µM) | 300 (≈ 842 µM) | –
NS(=O)(=O)c1cc(C(=O)O)c(Br)cc1Cl [Compound 18] | 30 (≈ 95.4 µM) | 300 (≈ 954 µM) | –

Converted amounts (≈) assume the structure as drawn.
